The other results are listed elsewhere or left out.
test system: HSkMC (human skeletal muscle cells); test: cytotoxicity call (relative viability < 0.9); settings: 10 µM

Row | Compound | cytotoxicity call
1 | NCCCCCc1nc2ccccc2[nH]1 | inactive
2 | C[C@H]1CCCCO[C@@H](CN(C)CC2CCCCC2)[C@@H](C)CN([C@@H](C)CO)C(=O)c2cc(NC(=O)Nc3cccc4ccccc34)ccc2O1 | inactive
3 | O=C(O)C[C@H]1CC[C@H]2[C@@H](COC[C@H](O)CN2S(=O)(=O)c2ccc(F)cc2)O1 | inactive
4 | CC(C)NC(=O)Nc1cccc2c1O[C@H](CN(C)S(=O)(=O)c1ccc(F)cc1)[C@@H](C)CN([C@@H](C)CO)C2=O | inactive
5 | CO[C@H]1CN(C)C(=O)c2cc(NC(=O)C3CC3)ccc2OC[C@@H](C)N(C(=O)C2CCOCC2)C[C@H]1C | inactive
6 | CC(C)NC(=O)Nc1ccc2c(c1)CC(=O)N([C@H](C)CO)C[C@H](C)[C@H](CN(C)C(=O)Nc1ccc3c(c1)OCO3)O2 | inactive
7 | C[C@@H]1CCCCO[C@@H](CN(C)C(=O)c2ccncc2)[C@H](C)CN([C@H](C)CO)C(=O)c2cc(NC(=O)C3CCCCC3)ccc2O1 | inactive
8 | Cc1noc(C)c1NC(=O)N(C)C[C@@H]1Oc2c(NC(=O)c3ccc(-c4nccs4)cc3)cccc2C(=O)N([C@H](C)CO)C[C@@H]1C | inactive
9 | C[C@@H]1CCCCO[C@@H](CN(C)C(=O)Nc2ccc(C(F)(F)F)cc2)[C@H](C)CN([C@H](C)CO)C(=O)c2cc(NS(C)(=O)=O)ccc2O1 | inactive
10 | CN1CCN(C(=O)C[C@@H]2C=C[C@@H](NC(=O)Cc3ccccn3)[C@@H](CO)O2)CC1 | inactive
11 | C[C@H](CO)N1C[C@H](C)[C@H](CN(C)Cc2ccc(C(F)(F)F)cc2)OCCCC[C@H](C)Oc2ccc(NS(=O)(=O)c3cccs3)cc2C1=O | inactive
12 | C[C@@H]1CN([C@H](C)CO)C(=O)c2cc(NS(=O)(=O)c3cccs3)ccc2O[C@H]1CN(C)Cc1ccncc1 | inactive
13 | C[C@@H]1CN([C@@H](C)CO)C(=O)c2cc(NS(=O)(=O)c3ccc(Cl)cc3)ccc2O[C@H]1CN(C)S(=O)(=O)c1cn(C)cn1 | inactive
14 | COc1ccc2c3c([nH]c2c1)[C@@H](CO)N(C[C@]13CCN(CC1)Cc1ccccc1OC)C(=O)Nc1ccc(cc1)F | inactive
15 | CO[C@@H]1CN(C)C(=O)c2cc(NS(C)(=O)=O)ccc2OC[C@@H](C)N(C(=O)C2CCOCC2)C[C@@H]1C | inactive
16 | CO/N=[N+](\[O-])N(C)C[C@@H](C)O | inactive
17 | C[C@@H]1CN([C@H](C)CO)C(=O)c2c(c3ccccc3n2C)-c2ccccc2CO[C@@H]1CN(C)Cc1ccc(F)cc1 | inactive
18 | C[N+]1(C)C2CCC1CC(OC(=O)C(O)c1ccccc1)C2.[Br-] (stereo not given) | inactive
19 | NCc1cccc(Cl)c1 | inactive
20 | C[C@H]1CCCCO[C@@H](CN(C)C(=O)Nc2ccccc2)[C@@H](C)CN([C@@H](C)CO)C(=O)c2cc(NC(=O)C3CCCCC3)ccc2O1 | inactive

Row | Compound | cytotoxicity call
21 | CN1CCN(C(=O)C[C@H]2CC[C@H]3[C@@H](COC[C@@H](O)CN3C(=O)Nc3cc(Cl)cc(Cl)c3)O2)CC1 | inactive
22 | NC(=O)NCC#Cc1ccc2c(c1)[C@]1(C(=O)N2)[C@H](c2ccccc2OCCO)N2[C@H](c3ccccc3)[C@H](c3ccccc3)OC(=O)[C@H]2[C@@H]1C(=O)N1CCN(c2ncccn2)CC1 | inactive
23 | Cc1noc(C)c1NC(=O)N(C)C[C@@H]1Oc2ccc(NC(=O)Cn3cnnn3)cc2C(=O)N([C@H](C)CO)C[C@@H]1C | inactive
24 | CN1CCN(C(=O)C[C@H]2C[C@H]3c4cc(NC(=O)c5ccc6c(c5)OCO6)ccc4O[C@H]3[C@@H](CO)O2)CC1 | inactive
25 | CNC(=O)c1cnn(-c2nc(N)c3ncn([C@@H]4O[C@H](CO)[C@@H](O)[C@H]4O)c3n2)c1 | inactive
26 | C[C@H](CO)N1C[C@H](C)[C@@H](CN(C)S(=O)(=O)c2ccccc2)Oc2ncc(C#Cc3ccccc3F)cc2C1=O | inactive
27 | CC(C)NC(=O)N(C)C[C@@H]1Oc2c(NS(=O)(=O)c3ccccc3)cccc2C(=O)N([C@@H](C)CO)C[C@@H]1C | inactive
28 | C[C@H](CO)N1C[C@H](C)[C@H](CN(C)C(=O)Nc2ccc(C(F)(F)F)cc2)Oc2c(NC(=O)Nc3ccc(C(F)(F)F)cc3)cccc2C1=O | active
29 | C[C@@H]1CCCCO[C@@H](CN(C)Cc2ccc(C(=O)O)cc2)[C@@H](C)CN([C@H](C)CO)C(=O)c2cc(NC(=O)Nc3cccc4ccccc34)ccc2O1 | inactive
30 | C[C@@H]1CN([C@@H](C)CO)C(=O)c2cc(-c3cncnc3)cnc2O[C@@H]1CN(C)C(=O)CN1CCOCC1 | inactive
31 | Cc1noc(C)c1NC(=O)N(C)C[C@@H]1OCCCC[C@H](C)Oc2ccc(NC(=O)Nc3ccc(F)cc3)cc2C(=O)N([C@@H](C)CO)C[C@@H]1C | inactive
32 | Cc1ccc(S(=O)(=O)Nc2ccc3c(c2)C(=O)N([C@H](C)CO)C[C@@H](C)[C@H](CN(C)S(=O)(=O)c2ccc(C)cc2)OCCCC[C@@H](C)O3)cc1 | inactive
33 | CN1[C@@H]2c3ccc(-c4ccccc4)c(=O)n3C[C@H]1[C@H](CO)[C@H]2C(=O)NCCCN1CCOCC1 | inactive
34 | COc1ccc(S(=O)(=O)N(C)C[C@@H]2Oc3ccc(NC(=O)CCCN(C)C)cc3CC(=O)N([C@@H](C)CO)C[C@@H]2C)cc1 | inactive
35 | CO[C@@H]1CN(C)C(=O)c2ccc(NS(C)(=O)=O)cc2OC[C@@H](C)N(S(C)(=O)=O)C[C@H]1C | inactive
36 | C[C@@H]1CN([C@H](C)CO)C(=O)c2ccccc2-c2ccccc2CO[C@H]1CN(C)S(=O)(=O)c1cn(C)cn1 | inactive
37 | C[C@@H]1CCCCO[C@@H](CN(C)C(=O)Nc2ccc(C(F)(F)F)cc2)[C@H](C)CN([C@@H](C)CO)C(=O)c2cc(NC(=O)NC3CCCCC3)ccc2O1 | inactive
38 | C[C@@H]1CN([C@H](C)CO)C(=O)CCCn2nncc2CO[C@@H]1CN(C)S(=O)(=O)c1ccccc1C#N | inactive
39 | C[C@H](CO)N1C[C@H](C)[C@@H](CN(C)CC2CC2)Oc2c(NS(=O)(=O)c3cccs3)cccc2C1=O | inactive
40 | C[C@H]1CN([C@@H](C)CO)C(=O)c2cc(NS(=O)(=O)c3cccs3)ccc2O[C@H]1CN(C)S(=O)(=O)c1cccs1 | inactive
